34 variants from the RNAGym collection of RNA variant scans (doi:10.1093/nar/gkz1192) can be followed below.

B1: CPEB3 Ribozyme (parent)
chain: UAACAGGGGGCCACAGCAGAAGCGUUCACGUCGCAGCCCCUGUCAGAUUCUGGUGAAUCUGCGAAUUCUGCUGUAUAUCUC

Read counts are not given, so values of variants with three or more changes are uncertain.

The variants in the data set derive from B1. Description: self-cleavage, relative activity (ratio to wild type); higher = more cleavage; in vitro, sequencing. In a few lines:
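Relative activity was defined as the cleaved/total read fraction for a variant divided by the same fraction for the unmutated ribozyme. CPEB3 self-cleaving ribozyme libraries were made by rounds of error-prone PCR, barcoded, and transcribed in vitro with T7 RNA polymerase for 5 hours at 37°C, and cleavage ran through transcription plus a 15 min DNase I step before EDTA. Illumina sequencing of template-switched reverse transcripts gave the reads, and DNA sequencing mapped the barcodes. Averages come from three batches, using variants with at least 5 reads.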
For UAACAGGGGGCCACAGCUGAAGCGUUCACGUCGCAGCCCCAGUCAGAUUCUGGUGAAUCUGCGAAUUCUGCUGUUUAUCUC [A18U U41A A75U], the self-cleavage came out at 0.18.

With UAACAGGGGGCCACAGCUGAAGCGCUCACGUCGCAGCCCCUGUCAGAUUCUGGUGAACCUGCGAAUUCUGCUGUAUUUCUC [A18U U25C U58C A77U], the self-cleavage is 0.2. For UAACAGGGGGCCACAGCUGAAGCGUCCACGUCGCAGCCCCCGUCAGAUUCUGGUGAAUCUGCGAAUUCUGCUGUAUAACUC [A18U U26C U41C U78A], the self-cleavage was 0.11.

As for UAACAGGGGGCCACAGCUGAAGCGUCCACGUCGCAGACCCUGUCAGAUUCUGGUGAAUCCGCGAAUUCUGCUGUAUAUCUC [A18U U26C C37A U60C], the self-cleavage was 0.16. To UAACAGGGGGCCACAGCUGAAGCGUUCACGCAGCAGCCCCUGUCAGAUUCUGGUGAAUCUGCGAAUUCUGCUGUAUAUCUC [A18U U31C C32A] belongs 0.19.

On to UAACAGGGGGCCACAGCUGAAGCGCACACGUCGCAGACCCUGUCAGAUUCUGGUGAAUCUGCGAAUUCUGCUGUAAAUCCC [A18U U25C U26A C37A U76A U80C], for which the self-cleavage came to 0.24. Turning to UAACAGGGGGCCACAGCUGAAGCGCUCACGUCGCAGCCCCUGUCAGAUUCUGGUGAAUCUGCGAAUUGUGCUGUAUAUCCC [A18U U25C C68G U80C], the self-cleavage came to 0.11. Regarding UAACAGGGGGCCACAGCUGAAGCGCUCACGUCGCAGCCCCCGUCAGAUUCCGGUGGAUCUGCGAAUUCUGCUGUAUAUCUC [A18U U25C U41C U51C A56G], the self-cleavage was 0.39. With UAACAGGGGGCCACAGCUGAAGCGCUCACGUCGCAGCCCCUGUCAGAUUCUGGUGAAUCUGCGAAUCCCGCUGUAUAUCUC [A18U U25C U67C U69C], the self-cleavage was determined as 0.12. UAACAGGGGGCCACAGCUGAAGCGUCCACGUCGCAGCCCCAGUCAGAUACUGGUGAAUCUGCGAAUUCUGCAGUAUAUCUC [A18U U26C U41A U49A U72A]: the self-cleavage amounted to 0.28.

As to UAACAGGGGGCCACAGCUGAAGCGCUCACGUCGCAGCCCCUGUCAGAUUCUGGUGAAUGUGCGAGUUCUGCAGUAUAUCUC [A18U U25C C59G A65G U72A], the self-cleavage came out at 0.06.

Consider UAACAGGGGGCCACAGCUGAAGCGUUCACGUCGCAGCCCCAGUCAGAUUCAGGCGAAUCUGCGAAUUCUGCUGUAUAUCUC [A18U U41A U51A U54C], for which the self-cleavage stood at 0.15. As to UAACAGGGGGCCACAGCUGAAGCGCUCACGUCGCAGCCCCAGUCAGAUUCUGGCGAAUCUGCGAAUUCUGCUGUAUAUCUC [A18U U25C U41A U54C], the self-cleavage was found to be 0.2. With UAACAGGGGGCCACAGCUGAAGCGCUCACGUCGCAGCCCCUGUCAGAUUCUGGUGAAUCUGCGAGCUCUGCUGUAUAUCUC [A18U U25C A65G U66C], the self-cleavage amounted to 0.27.

For the variant UAACAGGGGGCCACAGCUGAAGCGUCCACGUCGCAGCCCCCGUCAGAUUCUGGUGAAUCUGCGAAUUCGGCUGUAUAUCUC [A18U U26C U41C U69G], the self-cleavage was determined as 0.31. With UAACAGGGGGCCACAGCUGAAGCGUCCACGUCACAGCCCCUGUCAGAUUCUGGCGAAUCUGCGAAUUCUCCUGUAUACCUC [A18U U26C G33A U54C G70C U78C], the self-cleavage was 0.08. To UAACAGGGGGCCACAGCUGAAGCGUUCACGCCGCAGCCCCUGUCAGAUUCUGGUGAAUCUGCGAAUUCUGCUGUAUGUCUC [A18U U31C A77G] belongs 0.18; to UAACAGGGGGCCACAGCUGAAGCGUACACGUCGCAGCCCCUGUCGGAUUCUGGUGAAUCUGCGAACUCUGCUGUAUAUCAC [A18U U26A A45G U66C U80A], 0.11; to UAACAGGGGGCCACAGCUGAAGCGUUCACGCCGCAGCCCCUGUCAGGUUCUGGUGAAUCUGCGUAUUCUGCUGUAUAUCUA [A18U U31C A47G A64U C81A], 0.1. Regarding UAACAGGGGGCCACAGCUGAAGCGUCCACGUCGCAGCCCCCGUCAGAUUCUGGUGAAUCCGCGAAUUCAGCUGUAUAUCAC [A18U U26C U41C U60C U69A U80A], the self-cleavage is 0.24. The result for UAACAGGGGGCCACAGCUGAAGCGUCCACGUCGCAGCCCCUGUCAGAUUCUGGUGAAUCUGCCAAUUCUGCUGUAUAGCUC [A18U U26C G63C U78G] reads 0.16; that for UAACAGGGGGCCACAGCUGAAGCGUUCACGCCGCAGCCCCUGUCAGAUUCCGGUGAAUCUGUGAAUUCUGCUGUAUAUCUC [A18U U31C U51C C62U], 0.14. In the case of UAACAGGGGGCCACAGCUGAAGCGUCCGCGUCGCAGCCCCUGCCAGAUUCUGGUGAAUCUGCGAAUUCUGCUGUAUAUCUC [A18U U26C A28G U43C], the self-cleavage is 0.13. The result for UAACAGGGGGCCACAGCUGAAGCGCUCACGUCGCAGCCCCUGACAGAUUCUGGUGAAUUUGCGCAUUCUGCUGUAUAUCUC [A18U U25C U43A C59U A64C] reads 0.12; that for UAACAGGGGGCCACAGCUGAAGCGUUCACGCCGCAGCCCCUGUCGGAUUCUGGCGAAUCUGCGAAUUCUGCUGUAUAUCUC [A18U U31C A45G U54C], 0.13.

With UAACAGGGGGCCACAGCUGAAGCGUUCACGCCGCAGCCCCUGUCAGAUUCUGGUGAAUCUGCGAAUUCUGCAGUAUAUCUC [A18U U31C U72A], the self-cleavage came out at 0.17. For UAACAGGGGGCCACAGCUGAAGCGUUCACGUCGCAGCCCCCGUCAGAUUCUGGUGGGUCAGCGAAUUCUGCUGUAUAUCUC [A18U U41C A56G A57G U60A], the self-cleavage was 0.49.

For the variant UAACAGGGGGCCACAGCUGAAGCGUUCACGGCGCAGCCCCUGUCAGAUUCUGGUGAUUCUGCGGAUUCUGCUGUAUAUCUC [A18U U31G A57U A64G], the self-cleavage was found to be 0.13.

Consider UAACAGGGGGCCACAGCUGAAGCGUUCACGUCGCAGCCCCAGUCAGAUUCUGGUGAAUCUGCGAAUUCUGCUGUAUACCUC [A18U U41A U78C], for which the self-cleavage turned out to be 0.11. As for UAACAGGGGGCCACAGCUGAAGCGCUCACGUCGCAGCCCCUGUCAGAUCCUGGUGAAUCUGCGAAUUCAGCUGUAUAUCUC [A18U U25C U49C U69A], the self-cleavage was determined as 0.14.

As for UAACAGGGGGCCACAGCUGAAGCGUACACGUCGCAGCCCCUGUCAGAUUCUGGUGAGUCCGCGAACUCUGCCGUAUAUCUC [A18U U26A A57G U60C U66C U72C], the self-cleavage amounted to 0.16.

Take UAACAGGGGGCCACAGCUGAAGCGUGCACGUCGCGGCCCCUGUCAGAUUCUGGUGAAUCUGCGAAUUCUGCUGUAUUUCUC [A18U U26G A35G A77U]: the self-cleavage was determined as 0.76. In the case of UAACAGGGGGCCACAGCUGAAGCGCGCACGUCGCAGCCCCUGUCAGAUUCUGGUGAAUCUGCGAAUUCUGCUGUAUAUCUC [A18U U25C U26G], the self-cleavage was 0.33.

For the variant UAACAGGGGGCCACAGCUGAAGCGCUCACGUCGCAGCCCCUGUCAAAUUCUGGUGAAUCUGCGAAUUCUGCUGUAUAUCUC [A18U U25C G46A], the self-cleavage came out at 0.22.
